Measurements taken from article PMC4336329 (PLoS ONE, 2015).
The whole screen tested about 310,000 compounds, of which about 2,200 (0.71%) showed an effect of 50% or more. Effects have a minus sign here. The list shows a part of the results.

biological target: human ether-à-go-go-related gene (hERG) potassium channel (human, UniProt Q12809); assay: primary screen, population patch clamp on CHO cells stably expressing hERG
Sequence (Q12809 whole entry, looked up): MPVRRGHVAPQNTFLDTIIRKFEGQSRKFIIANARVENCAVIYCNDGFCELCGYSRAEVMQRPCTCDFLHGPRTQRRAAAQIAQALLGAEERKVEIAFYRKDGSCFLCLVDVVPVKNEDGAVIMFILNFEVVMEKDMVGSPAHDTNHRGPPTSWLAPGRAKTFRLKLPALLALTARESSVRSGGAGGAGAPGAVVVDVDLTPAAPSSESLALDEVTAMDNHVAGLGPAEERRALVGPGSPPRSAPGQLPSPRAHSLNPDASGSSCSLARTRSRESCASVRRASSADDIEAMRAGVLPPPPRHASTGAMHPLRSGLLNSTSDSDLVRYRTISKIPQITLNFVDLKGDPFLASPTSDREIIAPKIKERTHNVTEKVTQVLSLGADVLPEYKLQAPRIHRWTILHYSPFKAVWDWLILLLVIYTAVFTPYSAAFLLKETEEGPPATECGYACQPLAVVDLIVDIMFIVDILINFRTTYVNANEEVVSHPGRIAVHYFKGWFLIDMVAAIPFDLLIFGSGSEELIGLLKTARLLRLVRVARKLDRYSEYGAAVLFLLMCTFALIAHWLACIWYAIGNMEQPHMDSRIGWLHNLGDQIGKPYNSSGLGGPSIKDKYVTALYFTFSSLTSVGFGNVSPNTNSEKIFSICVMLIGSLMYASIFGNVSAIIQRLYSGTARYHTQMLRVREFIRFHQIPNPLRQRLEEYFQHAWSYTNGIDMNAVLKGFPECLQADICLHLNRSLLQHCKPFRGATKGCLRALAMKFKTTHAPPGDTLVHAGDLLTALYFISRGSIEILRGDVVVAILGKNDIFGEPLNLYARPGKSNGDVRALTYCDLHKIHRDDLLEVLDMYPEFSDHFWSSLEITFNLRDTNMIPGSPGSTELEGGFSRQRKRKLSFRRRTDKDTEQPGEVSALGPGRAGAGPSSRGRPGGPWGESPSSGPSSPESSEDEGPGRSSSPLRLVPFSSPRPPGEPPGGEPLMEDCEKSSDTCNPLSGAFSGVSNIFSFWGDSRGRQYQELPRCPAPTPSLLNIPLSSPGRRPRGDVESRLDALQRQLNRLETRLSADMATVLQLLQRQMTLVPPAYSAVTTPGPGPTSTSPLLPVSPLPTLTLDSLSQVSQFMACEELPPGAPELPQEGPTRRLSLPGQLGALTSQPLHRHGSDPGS

| Structure (SMILES) | hERG current change (%, negative = inhibition) at 1uM |
| --- | --- |
| Cn1c(Cl)c(/C=N/OC(=O)c2ccc(Cl)cc2)c2ccccc21 | 4.72% |
| Cc1cc(C)c(OCC(=O)Nc2ccc3c(c2)OCO3)cc1C | 4.3% |
| CCOC(=O)c1c(NC(=S)NC)sc2c1CCCC2 | 11.1% |
| CCC(C)NC(=O)CN1C(=O)CSc2ccc(S(=O)(=O)N3CCCC3)cc21 (stereo not drawn) | 15.8% |
| COc1ccc(C(=O)C2CCN(CC(=O)Nc3ccc(C)cc3)CC2)cc1 | -22.8% |
| CCC(C)c1ccc(NC(=O)COC(=O)C2=COCCO2)cc1 (stereo not drawn) | 9.09% |
| O=C(NNC1CC(=O)N(c2ccccc2)C1=O)c1ccccc1Cl (stereo not drawn) | 11.1% |
| COc1ccc(N(CC(=O)NCc2ccccc2)C(=O)CCC(=O)Nc2cc(C)ccn2)c(OC)c1 | -18.4% |
| O=C(NC1CCCC1)C(c1ccccc1)N(Cc1ccc(F)cc1)C(=O)c1csnn1 (stereo not drawn) | 0.348% |
| CCOC(=O)N1CCN(C(=O)CN(Cc2ccc(Cl)cc2)S(=O)(=O)c2ccccc2)CC1 | -15.1% |
| O=C(Cc1ccc([N+](=O)[O-])cc1)N/N=C/c1cccs1 | 8.54% |
| CC(C)(C)n1nc2c(c1NC(=O)c1ccc(Br)cc1)CS(=O)C2 (stereo not drawn) | 0.972% |
| O=C(NCc1nnc(SCC(=O)N2CCOCC2)o1)c1c(F)cccc1Cl | 8.25% |
| CCCN(Cc1nc(-c2ccc(Cl)cc2)no1)CC1CCCO1 (stereo not drawn) | 4.92% |
| C[C@@H]1NC(=O)[C@H](CCC(N)=O)NC(=O)c2cc([N+](=O)[O-])cc(I)c2NCC[C@@H](C(N)=O)NC1=O | 9.61% |
| C[C@@H]1NC(=O)[C@H](CCCN=C(N)N)NC(=O)c2cc([N+](=O)[O-])cc(I)c2NCCC[C@@H](C(N)=O)NC1=O | 10.4% |
| CCOc1ccc(C(=O)N2CCN(CC(=O)N3CCCC3)CC2)cc1OCC | 1.47% |
| CS(=O)(=O)N(CC(=O)N1CCCCC1)c1cccc(F)c1 | 13.4% |
| COCCCNc1nc2ccccc2nc1NS(=O)(=O)c1cccc(Cl)c1 | 32.8% |
| CCC(C)C(NC(=O)OCc1ccccc1)C(=O)OCN1C(=O)c2ccccc2C1=O (stereo not drawn) | 7.99% |
| Cc1ccc(/C=C2/NC(=O)N(Cc3ccc(Br)cc3)C2=O)o1 | 1.44% |
| O=c1c(-c2ccc(O)cc2)coc2c(C3O[C@H](CO)[C@@H](O)[C@H](O)[C@H]3O)c(O)ccc12 (stereo partly drawn) | 18.3% |

| Structure (SMILES) | hERG current change (%, negative = inhibition) at 1uM |
| --- | --- |
| Cc1cc(=O)oc(C)c1C(=O)Nc1ccc2nsnc2c1 | 14.5% |
| CCOC(=O)C(C)Sc1ccc2nnc(CCNS(=O)(=O)c3ccc(C)cc3)n2n1 (stereo not drawn) | 6.57% |
| COc1ccc(Cn2c(/C=C/c3ccccc3)nc3ccccc32)cc1 | 4.99% |
| CCCCc1c(O)c2ccccc2[nH]c1=O | 10% |
| COc1ccc(/C=N/NC(=O)c2cc(C3CC3)[nH]n2)cc1OC | 5.75% |
| Cc1onc(-c2ccccc2)c1C(=O)N1CCN(c2ccccn2)CC1 | 11.2% |
| CCCCc1cc(=O)oc2cc(C)cc(OC(C)C(=O)O)c12 (stereo not drawn) | 15.5% |
| CCC(C)n1[nH]c(=O)cc1N (stereo not drawn) | 14.7% |
| CCOC(=O)c1ccc(NC(=O)Nc2ccc(S(N)(=O)=O)cc2)cc1 | 6.06% |
| Cn1c(=O)[nH]c(=O)c2c1nc(N/N=C/C(Br)=C/c1ccccc1)n2CCO | 14.2% |
| CCc1ccc(CC)c(S(=O)(=O)Nc2ccc(C(=O)O)c(O)c2)c1 | 14.8% |
| Cc1cc(C(=O)NNC(=O)CCN2CCN(c3ccccc3)CC2)c2ccccc2n1 | 0.983% |
| C#CCOCCOCCOCCNc1nc(N2CCN(C(=O)[C@H]([C@@H](C)CC)n3cc([C@@H](N)Cc4ccc(O)cc4)nn3)CC2)nc(N2CCN(C(=O)[C@H](Cc3ccc(O)cc3)n3cc([C@@H](N)C(C)CC)nn3)CC2)n1.Cl (stereo partly drawn) | -0.72% |
| COc1ccc(COC(=O)CN2C(=O)NC3(CCCC3)C2=O)cc1F | 7.47% |
| O=C(Nc1nnc(-c2ccco2)s1)C1CC1 | -4.4% |
| CC1(C)CC(=O)C(C=NCC2CCN(C(=S)Nc3ccccc3)CC2)=C(O)C1 | 11.2% |
| COc1cc2c(cc1OC)C(C(=O)NCc1cccnc1)C(c1cccnc1)N(C)C2=O (stereo not drawn) | 9.12% |
| COCCNC(=O)C(=O)NCC1OCCN1S(=O)(=O)c1ccc(C)cc1 (stereo not drawn) | 13.2% |
| O=C(COC(=O)CCNS(=O)(=O)c1ccccc1)NC(=O)Cc1ccccc1 | 5.79% |
| CCc1ccccc1NNC(=O)CCc1ccccc1 | 13.2% |
| c1ccc(-c2nccnc2-c2ccccc2)cc1 | 9.96% |
| Nc1nc(C2CC2)c(Sc2sc(N)nc2C2CC2)s1 | 7.71% |

| Structure (SMILES) | hERG current change (%, negative = inhibition) at 1uM |
| --- | --- |
| COc1cc(-c2noc(C)c2C#CCO)cc(OC)c1OC | 11.4% |
| CCOC(=O)OC(C)OC1=C(C(=O)Nc2ccccn2)N(C)S(=O)(=O)c2ccccc21 (stereo not drawn) | 16.6% |
| CC(=O)Nc1ccc(C(=O)OCCC(C)C)cc1 | 6.1% |
| COCc1n[nH]c(=S)n1-c1cccc2ccccc12 | 14.6% |
| Cc1ccc2nc(Nc3ncc4c(n3)CC(C)(C)CC4=O)nc(C)c2c1 | 11.2% |
| COC(=O)C1=C(c2ccccc2)C[C@@H]2CC[C@H]1N2C(=O)NC(C)C | 11.4% |
| CO/N=C/C1CCN(c2ncc(C(F)(F)F)cc2Cl)C1=O (stereo not drawn) | 8.53% |
| O=C(/C=C/c1ccccc1)NNC(=O)c1cccc(Cl)c1 | 3.65% |
| CCc1cccc(CC)c1NC(=O)COC(=O)CC1c2ccccc2CCN1S(=O)(=O)c1ccc(F)cc1 (stereo not drawn) | 5.93% |
| Cc1ccc(S(=O)(=O)Nc2ccc(-c3nc4ccc(C)cc4s3)cc2)cc1 | 9.47% |
| O=C(CSc1nc2sccc2c(=O)[nH]1)N1CCN(c2ccccc2)CC1 | 13.4% |
| CC(=O)CCc1oc2c([N+](=O)[O-])cccc2c1-c1ccc(C)o1 | 15.7% |
| S=c1[nH]nc(Cn2cnc3ccccc32)n1-c1ccccc1 | 16.4% |
| COc1ccc(-c2cc(C(F)(F)F)nc(-n3cc(Cl)cn3)n2)cc1 | 5.11% |
| O=C(O)CCCC(=O)N1N=C(c2ccccc2)CC1c1ccc2c(c1)OCO2 (stereo not drawn) | 21.1% |
| CC(=NCCCNC1CCCCC1)C1=C(O)CC(C)(C)CC1=O | 11.9% |
| CCOc1ccc(Cl)cc1CNCCNCC(C)O.Cl (stereo not drawn) | 5.22% |
| CN1CCSc2ccc(C(=O)NCc3cccc(F)c3)cc21 | 17.1% |
| CSc1ccccc1OCc1cc(C(=O)N2CCN(C3CCCC3)C(=O)C2)no1 | -13.9% |
| Cc1ccc(O)c(N=Nc2ccccc2)n1 | 1.91% |
| COc1ccc(-c2nsc3c(SCc4ccccc4)ncnc23)cc1 | 4.45% |
| COc1ccc(CCN2CN(S(=O)(=O)c3ccc(C)cc3)c3nc4ccccc4nc32)cc1OC | 7.7% |

| Structure (SMILES) | hERG current change (%, negative = inhibition) at 1uM |
| --- | --- |
| COC(=O)c1sccc1NC(=O)c1ccc2c(c1)OCO2 | -0.869% |
| Cc1ccc(S(=O)(=O)N2CCN(c3ncnc4scc(-c5ccc(F)cc5)c34)CC2)cc1 | 13.8% |
| CCOC(=O)c1nc(Nc2ccc(C)cc2)c2ccccc2n1 | -4.71% |
| CSC(=O)CC(=O)NC(=O)c1ccccc1 | 0.864% |
| Cc1nn(CC(=O)N2N=C(C(F)F)CC2(O)C(F)F)c(C)c1[N+](=O)[O-] (stereo not drawn) | 9.35% |
| Cc1ccccc1-n1ncc2c1CC(C)(C)CC2NC(=O)C1=CC(=O)CC(C)(C)O1 (stereo not drawn) | 10.3% |
| CCOC(=O)N1CCN(C2CCCN(C(=O)c3ccccc3SC)C2)CC1 (stereo not drawn) | 15.3% |
| CCCNc1nc2c(c(=O)[nH]c(=O)n2C)n1CCOc1ccccc1 | -27.5% |
| COc1ccccc1OC(=O)c1ccc(C)c(S(=O)(=O)N2CCOCC2)c1 | 2.71% |
| CCCCN(CCCC)NC(=O)c1ccccc1 | 12.4% |
| O=C(O)c1ccc(N2C(=O)CC(N3CCN(c4cccc(Cl)c4)CC3)C2=O)cc1 (stereo not drawn) | 10.7% |
| Nc1cccc(O)c1 | 14.8% |
| CCC/C=N/NC(=O)c1ccccc1O | 17.2% |
| COc1ccc(CCN(C)C(=O)c2ccc(C)c(S(=O)(=O)N3CCCCC3)c2)cc1OC | 4.48% |
| CCn1c(C(=O)N2CCCC(C(=O)O)C2)cc2sccc21 (stereo not drawn) | 8.81% |
| COC(=O)Cc1c(C)nc2nc(-c3ccco3)[nH]n2c1=O | 9.37% |
| COC(=O)c1c(NC(=O)COC(=O)[C@@H](NS(=O)(=O)c2cccc(Cl)c2)C(C)C)sc2c1CCC2 | 12.7% |
| COc1ccc(N=Nc2cnc(C)nc2-c2ccccc2)cc1 | 12.4% |
| O=C(NCCc1ccccc1)C1CCN(S(=O)(=O)c2ccc(-n3cnnn3)cc2)CC1 | -20.9% |
| Cc1ccc(CN2CCCN(Cc3ccc(F)cc3Cl)S2(=O)=O)cc1 | 11.3% |
| O=C(Nc1nc2ccccc2n1CCN1CCCCC1)c1ccc(Cl)cc1 | -5.1% |
